# This list was built around the results that the source calls inconclusive (neither active nor inactive); the mix of calls is not that of the screen. No potency is given beside an inconclusive call; the fits are too rough. Active and inactive are the calls of the source. The call rests on the fitted dose curve; in most records, active means well fitted activation curve with a large enough effect in the signal ratio in the repeat runs, with a control signal flat (not every such curve was filed as active); inconclusive means weak or mixed curves; inactive means flat fitted curve, though single readings scatter; the % refers to the signal ratio.
# Assay: qHTS assay for small molecule activators of the heat shock response signaling pathway (AID 743210)
# Conditions: HeLa HSE-bla reporter, beta-lactamase ratio, 5 h; activation: at 62.6 µM (top of the series) unless noted
# Description: U.S. Tox21 Program National Center for Advancing Translational Sciences [NCATS] NIH Chemical Genomics Center [NCGC] U.S. Environmental Protection Agency [EPA] National Institutes of Environmental Health Sciences [NIEHS] National Toxicology Program [NTP] U.S. Food and Drug Administration [FDA] Tox21 Assay Overview: Various chemicals, environmental and physiological stress conditions may lead to the activation of heat shock response/ unfolded protein response (HSR/UPR). There are three heat shock transcription factors (HSFs) (HSF-1, -2, and -4) mediating transcriptional regulation of the human HSR. To identify the compounds that activate HSR signaling, HSE-bla HeLa cell line (Invitrogen, Carlsbad, CA, USA) containing a beta-lactamase reporter gene under the control of the heat shock response elements was used to screen the Tox21 10K compound library.
# Tox21 Assay Protocol Summary: The CellSensor HSE-bla HeLa cells (Invitrogen, Carlsbad, CA, USA) were dispensed at 1500 cells/6uL/well into 1536-well black wall/clear bottom plates using a Multidrop combi (Thermo Fisher Scientific, Waltham, MA) dispenser. After the assay plates were incubated at 37 C and 5% CO2 overnight, 23 nL of compounds dissolved in DMSO, positive controls or DMSO only was transferred to the assay plate by a Pintool station (Kalypsys, San Diego, CA). The plates were incubated at 37 C for 5 h. After 1 uL of LiveBLAzerTM B/G FRET substrate was added using a Flying Reagent Dispenser (Beckman Coulter, Indianapolis, IN, USA), the plates were incubated at room temperature for 2.5 h, and fluorescence intensity was measured by an Envision plate reader (PerkinElmer, Shelton, CT).
# On the % scale 0 is the no-effect control and ±100 the full control effect; potency means the concentration at half of the fitted maximal effect; tags describe the fitted curve by direction and shape or compound fluorescence and quenching.
Compound,activation,Potency
Cc1ccc(C(=O)Oc2ccc(C(O)CNC(C)(C)C)cc2OC(=O)c2ccc(C)cc2)cc1 (stereo not given),inactive: 4.85%,
CCCC/C=C/C=C\C=O,,"inconclusive [activator, single point]"
CC1C2CC(CC2C2CCCC(O)C2)C1(C)C (stereo not given),,inconclusive
Oc1ccc(Cc2ccccc2O)cc1,,inactive
CC(=O)OC[C@H]1O[C@@H](OC(C)=O)[C@H](OC(C)=O)[C@@H]1OC(C)=O,inactive: -0.437%,
COc1cc(C)c(Cc2cnc(N)nc2N)cc1OC,inactive: -0.225%,
CCOc1ccccc1O[C@H](c1ccccc1)[C@H]1CNCCO1,inactive: 2.8%,
CC(C)(C)C(=O)OCOC(=O)[C@@H]1N2C(=O)[C@@H](NC(=O)[C@H](N)c3ccccc3)[C@H]2SC1(C)C,,inconclusive
CCCCCCCCCCCC(=O)OCC(C)OC(=O)CCCCC(=O)O (stereo not given),,inconclusive
CC(C)COCC(CN(Cc1ccccc1)c1ccccc1)N1CCCC1 (stereo not given),,"inconclusive [falling, partial curve]"
CCCCCCCCCCN,,"inconclusive [activator, single point] and inactive"
Cc1cccc(CN2CCN(C(c3ccccc3)c3ccc(Cl)cc3)CC2)c1 (stereo not given),inactive: 1.17%,
c1ccc2ncccc2c1,,inconclusive [activator] and inactive
C=CC(C)(CCC=C(C)C)OC(=O)CC (stereo not given),inactive: 0.0296%,
CCCCC(CC)COCCCN (stereo not given),,inconclusive [activator]
Cc1cc(C(C#N)c2ccc(Cl)cc2)c(Cl)cc1NC(=O)c1cc(I)cc(I)c1O (stereo not given),,inconclusive [activator]
COc1cc([C@H]2Oc3cc([C@H]4Oc5cc(O)cc(O)c5C(=O)[C@@H]4O)ccc3O[C@@H]2CO)ccc1O,,"inconclusive [activator, single point]"
CC[C@H]1OC(=O)[C@H](C)[C@@H](O[C@H]2C[C@@](C)(OC)[C@@H](O)[C@H](C)O2)[C@H](C)[C@@H](O[C@@H]2O[C@H](C)C[C@H](N(C)C)[C@H]2O)[C@](C)(O)C[C@@H](C)CN(C)[C@H](C)[C@@H](O)[C@]1(C)O,inactive: -1.83%,
CC(COc1ccc(C(C)(C)C)cc1)OS(=O)OCCCl (stereo not given),inactive: -0.174% [at 81.1 µM],
CCCCCCCCCCCC(=O)[O][Sn]([CH2]CCC)([CH2]CCC)[O]C(=O)CCCCCCCCCCC,,inconclusive

Compound,activation,Potency
CCOc1ccc(NC(C)=O)cc1N,,"inconclusive [activator, single point]"
CCOC(=O)N1CCC(Nc2ccc(Cl)cc2N)CC1,,inconclusive [activator]
CCCCCC(C)OC(=O)COc1ccc(Cl)c2cccnc12 (stereo not given),,inconclusive
O=S(=O)(O)CO,inactive: 0.595%,
O=C(O)CCS,inactive: 0.0248% [at 81.1 µM],
CN1C(C(=O)Nc2ccccn2)=C(O)c2sccc2S1(=O)=O,,"inconclusive [activator, partial curve, poor fit]"
CC/C=C\CCCCCO,inactive: -0.168%,
O=C1CCCCCN1SSN1CCCCCC1=O,,"inconclusive [rising, single point]"
CC1(C)CC(O)CC(C)(C)N1,,"inconclusive [activator, single point]"
O=c1[nH]c(=O)c2[nH]c(=O)[nH]c2[nH]1,inactive: -0.669% [at 13.2 µM],
CC(=O)OC(C)C[N+](C)(C)C (stereo not given),inactive: 0.107%,
O=C(O)c1cc(C(=O)O)cc(S(=O)(=O)O)c1,,"inconclusive [activator, single point]"
CC(=O)CCC1=C(C)CCCC1(C)C,,"inconclusive [activator, partial curve, poor fit]"
COc1ccc(-c2cc(=S)ss2)cc1,,inconclusive [activator]
CC[N+](CC)(CC)CCOC(=O)C(C1CCCC1)C1CCCC1,inactive: -0.35%,
CCN1C(=O)c2ccccc2C1Nc1ccc(OCCN2CCCCC2)cc1 (stereo not given),inactive: -0.025%,
NC(=O)NC(N)=O,,inactive
C=CC(=O)OCCOC(=O)C=C,,inconclusive
CCCCCCCC/C=C\CCCCCCCC(=O)OCCO,,inconclusive
CCCCCCCC(=O)Oc1c(Br)cc(C#N)cc1Br,,inconclusive

# — PubChem BioAssay (Tox21)
